# Data taken from ChEMBL document CHEMBL3864165, “Design, synthesis, and AChE inhibitory activity of new benzothiazole-piperazines” (Bioorg Med Chem Lett, 2016).
# Experiments:
# Conditions in all cases: Electrophorus electricus
# [1] = test system: COc1cc2nc(NC(=O)CN3CCN(CCCN(C)C)CC3)sc2cc1OC; assay: Inhibition of electric eel AChE assessed as enzyme Km at 0.0288 uM preincubated for 15 mins followed by acetylthiocholine iodide substrate addition measured for 5 mins by Lineweaver-Burk plot analysis (reference value: 1.23 mM)
# [2] = test system: COc1cc2nc(NC(=O)CN3CCN(CCCN(C)C)CC3)sc2cc1OC; assay: Inhibition of electric eel AChE assessed as enzyme Vmax at 0.0288 uM preincubated for 15 mins followed by acetylthiocholine iodide substrate addition measured for 5 mins by Lineweaver-Burk plot analysis (reference value: 0.60 abs/min)
# [3] = test system: COc1cc2nc(NC(=O)CN3CCN(CCN(C)C)CC3)sc2cc1OC; assay: Inhibition of electric eel AChE assessed as enzyme Vmax at 0.0462 uM preincubated for 15 mins followed by acetylthiocholine iodide substrate addition measured for 5 mins by Lineweaver-Burk plot analysis (reference value: 0.60 abs/min)
# [4] = test system: COc1cc2nc(NC(=O)CN3CCN(CCCN(C)C)CC3)sc2cc1OC; assay: Inhibition of electric eel AChE assessed as enzyme Km at 0.1152 uM preincubated for 15 mins followed by acetylthiocholine iodide substrate addition measured for 5 mins by Lineweaver-Burk plot analysis (reference value: 1.23 mM)
# [5] = test system: COc1cc2nc(NC(=O)CN3CCN(CCN(C)C)CC3)sc2cc1OC; assay: Inhibition of electric eel AChE assessed as enzyme Vmax at 0.0924 uM preincubated for 15 mins followed by acetylthiocholine iodide substrate addition measured for 5 mins by Lineweaver-Burk plot analysis (reference value: 0.60 abs/min)
# [6] = test system: COc1cc2nc(NC(=O)CN3CCN(CCN(C)C)CC3)sc2cc1OC; assay: Inhibition of electric eel AChE assessed as enzyme Vmax at 0.0231 uM preincubated for 15 mins followed by acetylthiocholine iodide substrate addition measured for 5 mins by Lineweaver-Burk plot analysis (reference value: 0.60 abs/min)
# [7] = test system: COc1cc2nc(NC(=O)CN3CCN(CCCN(C)C)CC3)sc2cc1OC; assay: Inhibition of electric eel AChE assessed as enzyme Vmax at 0.0576 uM preincubated for 15 mins followed by acetylthiocholine iodide substrate addition measured for 5 mins by Lineweaver-Burk plot analysis (reference value: 0.60 abs/min)
# [8] = test system: COc1cc2nc(NC(=O)CN3CCN(CCN(C)C)CC3)sc2cc1OC; assay: Inhibition of electric eel AChE assessed as enzyme Km at 0.0462 uM preincubated for 15 mins followed by acetylthiocholine iodide substrate addition measured for 5 mins by Lineweaver-Burk plot analysis (reference value: 1.23 mM)
# [9] = test system: COc1cc2nc(NC(=O)CN3CCN(CCN(C)C)CC3)sc2cc1OC; assay: Inhibition of electric eel AChE assessed as enzyme Km at 0.0924 uM preincubated for 15 mins followed by acetylthiocholine iodide substrate addition measured for 5 mins by Lineweaver-Burk plot analysis (reference value: 1.23 mM)
# [10] = test system: COc1cc2nc(NC(=O)CN3CCN(CCCN(C)C)CC3)sc2cc1OC; assay: Inhibition of electric eel AChE assessed as enzyme Vmax at 0.1152 uM preincubated for 15 mins followed by acetylthiocholine iodide substrate addition measured for 5 mins by Lineweaver-Burk plot analysis (reference value: 0.60 abs/min)
# [11] = test system: COc1cc2nc(NC(=O)CN3CCN(CCCN(C)C)CC3)sc2cc1OC; assay: Inhibition of electric eel AChE assessed as enzyme Km at 0.0576 uM preincubated for 15 mins followed by acetylthiocholine iodide substrate addition measured for 5 mins by Lineweaver-Burk plot analysis (reference value: 1.23 mM)
# [12] = test system: COc1cc2nc(NC(=O)CN3CCN(CCN(C)C)CC3)sc2cc1OC; assay: Inhibition of electric eel AChE assessed as enzyme Km at 0.0231 uM preincubated for 15 mins followed by acetylthiocholine iodide substrate addition measured for 5 mins by Lineweaver-Burk plot analysis (reference value: 1.23 mM)
substance,measurement,setting,value
Acetylcholinesterase (Electrophorus electricus) (chain not printed),Km,[1],1280 µM
same,Vmax,[2],0.47 abs/min
same,Vmax,[3],0.37 abs/min
same,Km,[4],1380 µM
same,Vmax,[5],0.31 abs/min
same,Vmax,[6],0.46 abs/min
same,Vmax,[7],0.4 abs/min
same,Km,[8],1190 µM
same,Km,[9],1150 µM
same,Vmax,[10],0.39 abs/min
same,Km,[11],1250 µM
same,Km,[12],1270 µM
